This is one part of the list. The energies were worked out here from pooled read counts, against the library average; single values are noisy.

For the assay, the target named is T1, Pho4 (S. cerevisiae) (UniProt P07270).
T1 sequence: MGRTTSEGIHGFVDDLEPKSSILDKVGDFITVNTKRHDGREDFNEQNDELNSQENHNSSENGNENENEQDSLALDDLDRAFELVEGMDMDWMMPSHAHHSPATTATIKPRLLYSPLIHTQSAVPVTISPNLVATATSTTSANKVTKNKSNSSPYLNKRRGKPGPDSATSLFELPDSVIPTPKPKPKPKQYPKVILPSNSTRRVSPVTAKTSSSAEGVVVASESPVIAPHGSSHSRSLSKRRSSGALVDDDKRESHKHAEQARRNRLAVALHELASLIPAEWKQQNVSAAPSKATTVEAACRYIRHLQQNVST
Description: relative binding free energy (BET-seq); higher = weaker binding. The conditions noted are these: reference: library average.
As to TTATTCACGTGCAGGG, the “relative binding free energy” value turned out to be 0.29 kcal/mol.

Regarding TGGGGCACGTGGTCCG, the “relative binding free energy” value is -0.16 kcal/mol.

With ATCTTCACGTGGGAGG, the “relative binding free energy” value is 0.24 kcal/mol.

Take GTTATCACGTGAATTT: the “relative binding free energy” value worked out at 0.33 kcal/mol.

Consider ATGTTCACGTGTATAT, for which the “relative binding free energy” value came out at 0.21 kcal/mol.

Consider GTGAGCACGTGTGACT, for which the “relative binding free energy” value was found to be 0.14 kcal/mol.

As to GGGGTCACGTGATTCG, the “relative binding free energy” value came to 0.3 kcal/mol.

Consider TTTCTCACGTGTAAAG, for which the “relative binding free energy” value stood at 0.3 kcal/mol.

Regarding CGTTTCACGTGCAGGG, the “relative binding free energy” value was 0.21 kcal/mol.

With GGTTGCACGTGCTTAA, the “relative binding free energy” value was 0.05 kcal/mol.

TTAAGCACGTGTACTA: the “relative binding free energy” value worked out at 0.05 kcal/mol.

Take GCATGCACGTGTTTGT: the “relative binding free energy” value is -0.07 kcal/mol.

With GTAAACACGTGAGTTG, the “relative binding free energy” value worked out at 0.16 kcal/mol.

Turning to GTTAGCACGTGGAGTG, the “relative binding free energy” value is 0.02 kcal/mol.

Consider GTGTTCACGTGTGGTG, for which the “relative binding free energy” value turned out to be 0.33 kcal/mol.

With GGAATCACGTGGCCGG, the “relative binding free energy” value was found to be 0.22 kcal/mol.

With GTGAACACGTGTGGGG, the “relative binding free energy” value is 0.1 kcal/mol.

Regarding TTGATCACGTGGCGGC, the “relative binding free energy” value is -0.01 kcal/mol.

For the sequence AGGGTCACGTGGCAGT, the “relative binding free energy” value came out at 0.08 kcal/mol.

With TGGAGCACGTGTTTAT, the “relative binding free energy” value is -0.12 kcal/mol.

For GATCGCACGTGATGTT, the “relative binding free energy” value is 0.23 kcal/mol.

Take GCTTTCACGTGTCTGT: the “relative binding free energy” value was 0.34 kcal/mol.

With TTTAACACGTGGTAAA, the “relative binding free energy” value came to 0.03 kcal/mol.

GGTATCACGTGTGGCG: the “relative binding free energy” value was 0.33 kcal/mol.

Take CATGACACGTGGGGGT: the “relative binding free energy” value was -0.1 kcal/mol.

CGGTGCACGTGTTCTT: the “relative binding free energy” value came out at 0.02 kcal/mol.

For the sequence ATTCACACGTGGGTAT, the “relative binding free energy” value was -0.06 kcal/mol.

On to TCTTTCACGTGAGGTT, for which the “relative binding free energy” value came to 0.24 kcal/mol.

Take TGTAACACGTGAATTG: the “relative binding free energy” value turned out to be 0.2 kcal/mol.

Regarding GTTCACACGTGGTTAT, the “relative binding free energy” value worked out at 0.09 kcal/mol.

For GCGGTCACGTGTTCGG, the “relative binding free energy” value was 0.15 kcal/mol.

TTGTGCACGTGGTTCG: the “relative binding free energy” value was -0.04 kcal/mol.

On to CTGTACACGTGATATG, for which the “relative binding free energy” value turned out to be 0.18 kcal/mol.

GTTAGCACGTGCAGAT: the “relative binding free energy” value was determined as 0.21 kcal/mol.

As for ATGGGCACGTGTGCAC, the “relative binding free energy” value is -0.08 kcal/mol.

Consider TGTTACACGTGGGAAG, for which the “relative binding free energy” value was determined as 0.11 kcal/mol.

CTGGGCACGTGATAGT: the “relative binding free energy” value was 0.01 kcal/mol.

CAAGTCACGTGTGGGT: the “relative binding free energy” value came to 0.04 kcal/mol.

Take TTTAACACGTGGTTCT: the “relative binding free energy” value was -0.03 kcal/mol.

As to GATTTCACGTGAAGGA, the “relative binding free energy” value is 0.56 kcal/mol.

As for GTTTCCACGTGTAGTA, the “relative binding free energy” value is 0.09 kcal/mol.

With GGTTCCACGTGAAGGT, the “relative binding free energy” value was 0.3 kcal/mol.

In the case of ACGGGCACGTGTGGAG, the “relative binding free energy” value was -0.02 kcal/mol.

Consider GTTTACACGTGTTATT, for which the “relative binding free energy” value turned out to be 0.22 kcal/mol.

TTTTTCACGTGTACTC: the “relative binding free energy” value worked out at 0.3 kcal/mol.

For TTAGTCACGTGGCGAG, the “relative binding free energy” value was 0.13 kcal/mol.

For the sequence TTGGGCACGTGACATG, the “relative binding free energy” value was -0.05 kcal/mol.

GATCTCACGTGTAGGT: the “relative binding free energy” value is 0.26 kcal/mol.

Consider CAAGTCACGTGATGGG, for which the “relative binding free energy” value came out at 0.15 kcal/mol.

For the sequence TTTAGCACGTGCGTAA, the “relative binding free energy” value was -0.09 kcal/mol.

In the case of TGGTTCACGTGTTCTG, the “relative binding free energy” value is 0.25 kcal/mol.

For TTAAGCACGTGGATTT, the “relative binding free energy” value was -0.03 kcal/mol.

Regarding GGTTTCACGTGTTAAA, the “relative binding free energy” value is 0.27 kcal/mol.

Take TTCTACACGTGTGTTT: the “relative binding free energy” value was determined as 0.14 kcal/mol.

In the case of GTTATCACGTGTTATG, the “relative binding free energy” value amounted to 0.11 kcal/mol.

Take TTAAACACGTGCTGTT: the “relative binding free energy” value is -0.13 kcal/mol.

For the sequence TTGGGCACGTGTATGC, the “relative binding free energy” value is -0.17 kcal/mol.

As to GGTGTCACGTGTAGAA, the “relative binding free energy” value was 0.07 kcal/mol.

GGATACACGTGTGGAG: the “relative binding free energy” value was determined as 0.11 kcal/mol.

Regarding CTTGGCACGTGTTCGG, the “relative binding free energy” value is -0.17 kcal/mol.

For TAGGTCACGTGGAGTG, the “relative binding free energy” value is 0.12 kcal/mol.

For the sequence AAAAGCACGTGGGGTC, the “relative binding free energy” value is -0.14 kcal/mol.

For GAAGTCACGTGGGCAT, the “relative binding free energy” value was found to be 0.05 kcal/mol.

With CAAGGCACGTGTAATG, the “relative binding free energy” value turned out to be 0.03 kcal/mol.

As to TTTATCACGTGTAAGA, the “relative binding free energy” value was 0.23 kcal/mol.

As to CTAGGCACGTGGATGG, the “relative binding free energy” value was -0.17 kcal/mol.

With GCGGTCACGTGATGTA, the “relative binding free energy” value turned out to be 0.2 kcal/mol.

Take AAGGGCACGTGGTATT: the “relative binding free energy” value was -0.09 kcal/mol.

For the sequence AGTGTCACGTGTAGTC, the “relative binding free energy” value is -0.16 kcal/mol.

With ATCATCACGTGTTATG, the “relative binding free energy” value came to 0.06 kcal/mol.

GCATTCACGTGCTGGT: the “relative binding free energy” value came out at 0.27 kcal/mol.

In the case of ATTTGCACGTGGTACG, the “relative binding free energy” value amounted to 0.07 kcal/mol.

In the case of TTAGGCACGTGTGGTA, the “relative binding free energy” value came to 0.01 kcal/mol.

These data come from the BET-seq Pho4 binding data (Le et al. 2018).
